The record followed here is ChEMBL document CHEMBL1201862, “PubChem BioAssay data set” (2004).

As a reminder, the GI50 is the concentration giving 50% growth inhibition.

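Interpolation was linear, between the two tested concentrations surrounding the appropriate level; five concentrations were tested over 48 hours in 96-well plates. GI50 is the concentration that inhibits growth by half.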 Active and inactive are the calls of the source. Cut-off read from the data, not from the text of the source: active = GI50 up to about 1.1 µM and inactive = higher. Bounds are passed on as bounds.

The subject of this experiment is NCI-H322M. As to the kind of experiment: DTP human tumour cell line panel, 48 h.
With `CC(C)(C)OCC1NC(=O)[C@@H]2Cc3c([nH]c4ccccc34)C(C3CCCCC3)N2C1=O` (stereo partly specified), the GI50 is inactive: 28.8 µM.
The result for `Nc1nc(SCc2ccccn2)c2ncn(C3CCCC3)c2n1` reads inactive: > 100 µM.
In the case of `CC1(C)CN=C(Nc2ccc(F)c(F)c2)S1`, the GI50 was inactive: > 100 µM.
The result for `Cc1nc(O)nc(O)c1/C=C/C(=O)O` reads inactive: > 1000 µM.
Take `O=C(NCCCCCCCN1CCCCCCC1)C(C1CCCCC1)C1CCCCC1`: the GI50 is inactive: 13.3 µM.
On to `C=C1C(=O)OC2C1CCC(C)C1C=CC(=O)C12C` (stereo unspecified), for which the GI50 is inactive: 4.14 µM.
With `CCN(CC)CCCNc1ccc2ncn3c4ccc(O)cc4c(=O)c1c23`, the GI50 was inactive: 1.36 µM.
The result for `Cc1ncc([N+](=O)[O-])n1CCN=[N+]=[N-]` reads inactive: > 100 µM; that for `O=C1/C(=C\c2ccc([N+](=O)[O-])cc2)Sc2scc(-c3ccc(O)c(O)c3)[n+]21`, inactive: 18.4 µM; that for `C[C@]12CC(c3ccccc3O1)C(C(=O)Nc1nc(C34CC5CC(CC(C5)C3)C4)cs1)C(=O)N2` (stereo partly specified), inactive: > 100 µM.
With `COc1ccc(-c2c3c(n(C4OC(COC(C)=O)C(OC(C)=O)C(OC(C)=O)C4OC(C)=O)c(=S)c2C#N)CCC3)cc1` (stereo unspecified), the GI50 is inactive: > 100 µM.
Regarding `COc1ccc2nc3ccccc3c(NCCCN(C)CCCl)c2c1`, the concentration for 50% growth inhibition (GI50) was active: 0.269 µM.
With `Cc1nnc2sc(-c3ccc(-c4ccccc4Cl)o3)nn12` the figure was inactive: > 100 µM; with `CC1=C(c2ccc(C)cc2)NC(=S)C(C)C(c2ccc(C)cc2)=N1` (stereo unspecified), inactive: > 100 µM.
The result for `O=C(CNc1c(Cl)cccc1Cl)NC1C=Cc2ccc(S(=O)(=O)Nc3c(Cl)cccc3Cl)cc2C1=O` (stereo unspecified) reads inactive: > 100 µM.
With `Cc1ccc(S(=O)(=O)ON2C(=O)c3c(N)c(C#N)c(-c4ccccc4)c(-c4ccccc4)c3C2=O)cc1` the figure was inactive: > 100 µM; with `O=[N+]([O-])c1nccn1CCCNCCCn1ccnc1[N+](=O)[O-]`, inactive: > 100 µM; with `C=CCN1C(=O)CC(=O)N(NC2=NNC3(C(=O)N2)c2ccccc2-c2ccccc23)C1=S`, inactive: 30.9 µM.
As for `COc1cc(NCc2ccc3nc(-c4ccccc4)c(N)nc3c2)cc(OC)c1OC`, the GI50 is inactive: 62.7 µM.
The result for `CCOC(=O)n1c(=O)nc2c3c(ncn21)Oc1c(c(-c2ccccc2)nn1-c1ccccc1)C3c1ccc(Cl)cc1` (stereo unspecified) reads inactive: 1.37 µM.
As to `COc1cccc(OCC(=N/NC(=O)c2ccncc2)/N=C/c2cccnc2)c1`, the GI50 is inactive: > 100 µM.
As to `O=C(c1ccccc1)c1ccc2[nH]c(-c3c(Cl)c(Cl)c(Cl)c(Cl)c3C(=O)Nc3ccco3)nc2c1`, the GI50 is inactive: 51.9 µM.
The result for `CCCCCCCCCC[C@@H](OC(C)=O)[C@@H]1CC[C@@H]([C@@H]2CC[C@@H]([C@@H](O)CC#C/C=C/CCCCCCC[C@@]3(Sc4ccccc4)C[C@H](C)OC3=O)O2)O1` reads inactive: > 10 µM; that for `CC1(C)C(c2ccccc2)=[N+]([O-])C(C)(C)N1O`, inactive: > 10 µM.
For the compound `O=C1C=CC2OC(c3ccccc3)C(O)C2O1` (stereo unspecified), the GI50 was inactive: 8.24 µM.
Regarding `COC(=O)[C@H](C)[C@@H]1CC[C@](C)(CCC2=C(C)CCCC2(C)C)OO1`, the GI50 is inactive: > 25 µM.
On to `CNCc1cc(OC)ccc1-c1ccc(OC)c(OC)c1OC`, for which the GI50 was inactive: > 81.1 µM.
With `O=c1c2ccccc2nc(-c2cccc(Cl)c2)n1NCC1(O)OCC(O)C(O)C1O` (stereo unspecified) the figure was inactive: > 100 µM; with `O=C1/C(=C/c2ccco2)N=C(c2ccccc2)N1c1ccc(S(=O)(=O)Nc2nccs2)cc1`, inactive: > 100 µM; with `CC1(C)CC(C#Cc2ccccc2)CC(C)(C)N1O`, inactive: 19.3 µM.
As to `C=C1CC2C(=O)N(c3ccccc3)C(=O)C2CC1n1[nH]c(=O)n(Cc2ccccc2)c1=O` (stereo unspecified), the GI50 is inactive: > 100 µM.
With `CC[C@@]1(O)C(=O)OCc2c1cc1n(c2=O)Cc2c-1nc1ccccc1c2/C=N\NC(=O)C(N)CS` (stereo partly specified) the figure was inactive: 16 µM.
With `C1CSCCSCCCSC2CCCCC2SC1` (stereo unspecified) the figure was inactive: > 100 µM; with `Cc1cccc(C)c1NC(=O)CCC(=O)CC(=O)C(C)C`, inactive: > 100 µM.
With `CC(C)(C)C1=NC(=P(c2ccccc2)(c2ccccc2)c2ccccc2)C(=O)O1` the figure was inactive: > 100 µM; with `Cc1c2c(OCCN3CCCCC3)nn(C)c(=O)c2c(C)n1-c1ccccc1`, inactive: 85.1 µM; with `COc1ccc2c(c1OC(C)=O)C1=CC(=O)CCC13CCNC3C2` (stereo unspecified), inactive: > 100 µM.
With `CCOC(=O)C1CCCCN1C(=O)OCc1ccccc1` (stereo unspecified), the GI50 is inactive: > 100 µM.
Turning to `Cc1cc(S(=O)(=O)Nc2nc(N)nc(N3N=CCC3C)n2)c(SCC(=O)O)cc1Cl` (stereo unspecified), the GI50 was inactive: > 10 µM.
The result for `O=C(c1ccccc1)N1CCc2c([nH]c3ccccc23)C1` reads inactive: > 100 µM; that for `CN(C)/C=N/S(=O)(=O)c1nn2c(C=O)c(-c3ccccc3)nc2s1`, inactive: 24.1 µM.
With `Cc1ccc(S(=O)(=O)OCC/C(=C\[Si](C)(C)C)c2ccccc2)cc1` the figure was inactive: > 100 µM; with `CNCC(=O)Nc1ccc2c(c1)C(=O)c1ccc(NC(=O)CNC)cc1C2=O`, inactive: 1.99 µM.
The result for `CC(=O)Oc1cc(C)c2c(c1OC(C)=O)CC1(O2)[C@@H](C)CCC2[C@@]3(C)CC[C@H](OC(C)=O)C(C)(C)C3CC[C@]21C` (stereo partly specified) reads inactive: 22.1 µM; that for `C(=N\c1ccc(-c2nc3ccccc3s2)cc1)/c1ccc[nH]1`, inactive: 26.6 µM; that for `Cc1cc(S(=O)(=O)Nc2nc3cccnc3[nH]2)c(S)cc1Cl`, inactive: 67.6 µM.
Consider `CCN(CC)CCC(=O)Nc1ccc2c(c1)C(=O)c1ccc(NC(=O)CCN(CC)CC)cc1C2=O`, for which the GI50 is inactive: 3.81 µM.
Turning to `CCc1c(OC(C)=O)c2c(NC3OCC(OC(C)=O)C(OC(C)=O)C3OC(C)=O)nc(SC)nc2oc1=O` (stereo unspecified), the GI50 is inactive: > 100 µM.
Consider `N#Cc1nc(CSCc2ccccc2)oc1N`, for which the GI50 was inactive: > 100 µM.
The result for `COCOCC/C=C/C=O` reads inactive: > 100 µM; that for `C1=N\c2ccc(cc2)-c2ccc(cc2)/N=C\c2ccccc2OCc2cccc(n2)COc2ccccc2/1`, inactive: > 100 µM.
The result for `CN(C)CCCNC(=O)N/N=C/c1ccc(O)cc1` reads inactive: > 100 µM.
The result for `OC1CN(OC/C=C/c2ccccc2)CC(O)C1O` (stereo unspecified) reads inactive: > 100 µM; that for `O=C(CSCC(=O)N/N=C\c1ccccc1F)N/N=C\c1ccccc1F`, inactive: > 100 µM.
As for `[O-][S+](CCc1ccccc1)Nc1ccccc1` (stereo unspecified), the GI50 is inactive: > 100 µM.
The result for `COC(=O)c1c(C)nc(C)c(N=O)c1-c1ccccc1C(F)(F)F` reads inactive: > 100 µM.
Consider `N#CC12CCC(O)C(CC1)C2=O` (stereo unspecified), for which the GI50 is inactive: > 100 µM.
The result for `CCCCNC(=O)N/C=C1\C(=O)Oc2ccccc2C1=O` reads inactive: 29.7 µM; that for `N#Cc1c(-c2ccc(Cl)cc2)c2c(n(C3OC(CO)C(O)C(O)C3O)c1=S)CCCC2` (stereo unspecified), inactive: 47.3 µM.
Take `COC(=O)c1cc2c(cc1CC1Cc3cc4c(cc3C1=O)CCC4)CCC2` (stereo unspecified): the GI50 is inactive: 92.9 µM.
The result for `Cc1cccc(/N=C/C=C(\Cl)c2ccc3ccccc3c2)c1` reads inactive: 23 µM; that for `O=[N+]([O-])c1ccc(C2N3CCCCC3[C@@H]3c4[nH]c5ccccc5c4CCN23)cc1` (stereo partly specified), inactive: 19.6 µM.
The result for `Cc1ccc(C(O)/C(=N/N)c2nc3ccc([N+](=O)[O-])cc3nc2O)cc1` (stereo unspecified) reads inactive: 68.9 µM; that for `CC(=O)NNc1nc(C)c(C(=O)NNC(=O)C(=O)Nc2ccc([N+](=O)[O-])cc2[N+](=O)[O-])s1`, inactive: > 100 µM; that for `CCOC(=O)c1nnsc1NC(=O)Nc1ccc(Cc2ccc(NC(=O)Nc3snnc3C(=O)OCC)cc2)cc1`, inactive: 64 µM.
The result for `Cc1ccc(C(=O)/C=C2\Nc3ccccc3SC2=O)c(C)c1` reads inactive: > 100 µM; that for `COc1cc2c(cc1OCCCCOc1cc3nc(C)nc(Cl)c3cc1OC)N=C[C@@H]1CCCN1C2=O`, inactive: 1.97 µM.
For `CCCOC(=O)CNC(=O)OC(C)(C)C`, the GI50 is inactive: > 100 µM.
The result for `CCCCCCCCCCSS(=O)(=O)c1ccc(C)cc1` reads inactive: 17.4 µM; that for `COc1cccc(-c2nc(N)c(C#N)c3c2CCS(=O)(=O)c2ccc(C)cc2-3)c1`, inactive: 41.4 µM; that for `O=S(=O)(c1ccc(/N=N/O)nc1)c1ccc2ccccc2c1`, inactive: > 100 µM.
The result for `CC(NNC(=O)c1cc[n+]([BH2-]C#N)cc1)C(F)(F)F` (stereo unspecified) reads inactive: > 100 µM; that for `C=CC[C@]12C=C(OC)[C@@H](O)[C@](OC)(C(c3cc(OC)c4c(c3)OCO4)[C@H]1C)[C@H]2OC(C)=O` (stereo partly specified), inactive: > 100 µM; that for `CCC1(O)CC(OC2CC(N(C)C)C(OC3CC(O)C(OC4OC(C)C(=O)C=C4N)C(C)O3)C(C)O2)c2c(cc3c(c2O)C(=O)c2c(O)cccc2C3=O)C1C(=O)OC` (stereo unspecified), active: 0.01 µM.
The result for `O=C1Cc2c(-c3ccccc3)cc(-c3cccc(Cl)c3)nc2-c2ccccc2N1` reads inactive: 2.11 µM; that for `COC(=O)[C@@H]1COC(C(C)(C)C)N1C(=O)C(c1ccccc1)c1ccccc1` (stereo partly specified), inactive: 43.6 µM; that for `CCC1C(=O)OCc2c1cc1n(c2=O)Cc2ccccc2-1` (stereo unspecified), inactive: > 100 µM.
Take `O=C(O)CN(c1ccc(F)cc1)S(=O)(=O)c1ccccc1`: the GI50 is inactive: > 100 µM.
The result for `Cc1cc2c(cc1C)[n+]([O-])c(N1CCN(c3ccc([N+](=O)[O-])cc3)CC1)c(C#N)[n+]2[O-]` reads inactive: > 100 µM; that for `CCN(CC)CCCC(C)Nc1c2ccc(Cl)cc2nc2ccc(OC)cc12` (stereo unspecified), inactive: 1.69 µM.
With `Nc1nc(O)c2nc(N)n(Cc3ccccc3)c2n1` the figure was inactive: 39.4 µM.
